{"source": "PubChem BioAssay AID504466", "about": "(National Center for Advancing Translational Sciences (NCATS), 2011)", "note": "The whole screen tested about 330,000 compounds, of which about 4,200 (1.3%) were called active. Inconclusive results, whose numbers are uncertain, are shown with a selection of clear calls. Calls come from the whole dose curve; as a rule, active = well fitted activation curve with a large enough effect; inconclusive = small, poorly fitted or top-dose-only effect; inactive = no such curve, though single readings can be large or run the other way. Potencies of inconclusive entries are doubtful fits and often do not repeat. Potency is the fitted concentration of half-maximal effect; tags give direction and shape of the fitted curve.", "data": [{"experiment": "qHTS screen for small molecules that induce genotoxicity in human embryonic kidney (HEK293T) cells expressing luciferase-tagged ELG1; note: nearly all actives have a fitted effect of over 60% in size; for activity change, positive = activation: % of control where 0% means no effect", "details": "HEK293T ELG1-luciferase reporter, luminescence, 16 h; series mostly up to 46 µM; activity change, positive = activation: at the top concentration", "procedure,_shortened": "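Screening used a luciferase reporter fused to human ELG1 in HEK293T cells. Luminescence was read on a CCD plate imager after 16 hr exposure and 30 min ONE-Glo incubation.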", "values": [{"compound": "O=C(Nc1ccc(S(=O)(=O)Nc2ncccn2)cc1)c1cccc(S(=O)(=O)N2CCOCC2)c1", "activity change, positive = activation": "inactive: 0.0945%"}, {"compound": "CC(C)NC(=O)c1nc2ccccc2s1", "Potency": "inconclusive: 14.6 µM [activator, partial curve]"}, {"compound": "CCOc1ccc(NC(=O)c2ccncc2)cc1", "Potency": "inconclusive: 32.6 µM [activator, partial curve, poor fit]"}, {"compound": "Oc1ccccc1-c1cc(-c2cccc(F)c2)n[nH]1", "Potency": "inconclusive: 2.91 µM [activator, partial curve]"}, {"compound": "CCc1ccc(OCC(=O)Nc2ccncc2)c(Br)c1", "Potency": "inconclusive: 20.6 µM [activator, partial curve, poor fit]"}, {"compound": "O=C(Nc1ccc(F)cc1)c1c(Cl)nc2ccccn12", "Potency": "inconclusive: 23.1 µM [activator, partial curve, poor fit]"}, {"compound": "Cc1ccc2oc(C(=O)N3CCN(c4cccc(C)n4)CC3)c(C)c2c1", "activity change, positive = activation": "inactive: 10.3%"}, {"compound": "CC(C)CNC(=O)CN(c1ccccc1)S(=O)(=O)c1ccccc1[N+](=O)[O-]", "activity change, positive = activation": "inactive: 0.176%"}, {"compound": "O=[N+]([O-])c1ccc(N/N=C/c2ccccc2O)cc1", "Potency": "inconclusive: 20.6 µM [activator, partial curve, poor fit]"}, {"compound": "COC(=O)[C@H](Cc1ccccc1)NC(=O)c1ccc2ccccc2n1", "activity change, positive = activation": "inactive: 3.4%"}, {"compound": "CNc1snc(C)c1C(=O)OCC(=O)Nc1ccc(C)cc1F", "activity change, positive = activation": "inactive: -8.09%"}, {"compound": "Cc1cccnc1Nc1nc(-c2ccc(O)cc2O)cs1", "Potency": "inconclusive: 14.6 µM [activator, partial curve, poor fit]"}, {"compound": "Cc1nc(-c2ccccc2)sc1-c1ccnn1C", "Potency": "inconclusive: 3.26 µM [activator, full curve]"}, {"compound": "O=C(N/N=C/c1ccccn1)c1cc(-c2ccc(Br)cc2)nc2ccccc12", "Potency": "inconclusive: 13 µM [activator, partial curve]"}, {"compound": "Cc1cc(C(=O)N/N=C/c2ccc(C)s2)n[nH]1", "Potency": "inconclusive: 11.6 µM [activator, partial curve, poor fit]"}, {"compound": "c1ccc(CSc2nnc(-c3c[nH]c4ccccc34)o2)cc1", "Potency": "inconclusive: 18.4 µM [activator, partial curve, poor fit]"}, {"compound": "Cn1c(-c2ccc(CN3CCCCC3)o2)nc2ccccc21", "Potency": "inconclusive: 14.6 µM [activator, partial curve]"}, {"compound": "O=c1c2ccccc2nc2ccc(NCc3ccco3)nn12", "Potency": "inconclusive: 16.4 µM [activator, partial curve, poor fit]"}, {"compound": "COc1cc(C2CC(=O)c3c([nH]c(C(=O)OCCOC(C)C)c3C)C2)cc(OC)c1OC", "note": "(stereo not given)", "activity change, positive = activation": "inactive: -7.43%"}, {"compound": "Cc1ccnc(NC(=O)CNC(=O)c2ccc(C)s2)c1", "Potency": "inconclusive: 18.3 µM [activator, single point]"}]}]}
